Measurements published in the supplement of paper PMC7125110.
± gives the standard error. Variants at the floor of the assay are shown more often than the library holds them.

B1: glmS ribozyme (parent)
chain: AUAAAAGCGCCAGAACUACAGAAAUGUAGUUGACGAGGAGGAGGUUUAUCGAAUUUUCGGCGGAUGCCUCCAAA

How the values were obtained:
Conditions in all cases: with glucosamine-6-phosphate
[1] = variants of: B1; test: self-cleavage kobs at 40 uM GlcN6P; higher = faster cleavage; RNA array
Procedure, shortened: (§1)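 kobs was derived by fitting per-tile medians to one- or two-exponential decays after normalising signals to baseline and to non-cleaving reference variants. Those signals came from barcoded ribozyme variants transcribed in situ by E. coli RNA polymerase on sequenced MiSeq chips, followed through a hybridised Cy3 probe at 37 °C and imaged over ~14 h. Glucosamine-6-phosphate (40 μM to 10 mM) in HEPES/KCl/Mg(OAc)2 buffer was flowed in. Weighted Michaelis–Menten fits across concentrations then gave kcat and KM.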

[2] = variants of: B1; test: self-cleavage kobs at 2500 uM GlcN6P; higher = faster cleavage; RNA array
Procedure, shortened: as §1

[3] = variants of: B1; test: self-cleavage kobs at 10000 uM GlcN6P; higher = faster cleavage; RNA array
Procedure, shortened: as §1

[4] = variants of: B1; test: self-cleavage kobs at 640 uM GlcN6P; higher = faster cleavage; RNA array
Procedure, shortened: as §1

[5] = variants of: B1; test: self-cleavage kobs at 160 uM GlcN6P; higher = faster cleavage; RNA array
Procedure, shortened: as §1

Variant: AUAAAAGCGCCAGAACUACAGAAAUGUAGUUGAUGAGGAGGAGGUUUCUCGAAUUUUCGGCGGAUGCCUCCAAA
- self-cleavage kobs at 40 uM GlcN6P [1]: < 1e-05 s⁻¹
- self-cleavage kobs at 2500 uM GlcN6P [2]: < 1e-05 s⁻¹
- self-cleavage kobs at 10000 uM GlcN6P [3]: < 1e-05 s⁻¹

Variant: AUAAAAGCGCCAGAACUACAGAAAUGUAGUUGAUGAGGAGGAGGUUUUUCGAAUUUUCGGCGGAUGCCUCCAAA
- self-cleavage kobs at 40 uM GlcN6P [1]: < 1e-05 s⁻¹
- self-cleavage kobs at 640 uM GlcN6P [4]: < 1e-05 s⁻¹
- self-cleavage kobs at 160 uM GlcN6P [5]: < 1e-05 s⁻¹
- self-cleavage kobs at 2500 uM GlcN6P [2]: < 1e-05 s⁻¹
- self-cleavage kobs at 10000 uM GlcN6P [3]: < 1e-05 s⁻¹

Variant: AUAAAAGCGCCAGAACUACAGAAAUGUAGUUGAUGAGGAGGAGGUUUGUCGAAUUUUCGGCGGAUGCCUCCAAA
- self-cleavage kobs at 40 uM GlcN6P [1]: < 1e-05 s⁻¹
- self-cleavage kobs at 640 uM GlcN6P [4]: < 1e-05 s⁻¹
- self-cleavage kobs at 160 uM GlcN6P [5]: < 1e-05 s⁻¹
- self-cleavage kobs at 2500 uM GlcN6P [2]: < 1e-05 s⁻¹
- self-cleavage kobs at 10000 uM GlcN6P [3]: < 1e-05 s⁻¹

Variant: AUAAAAGCGCCAGAACUACAGAAAUGUAGUUGAUGAGUAGGAGGUUUAUCGAAUUUUCGGCGGAUGCAUCCAAA
- self-cleavage kobs at 40 uM GlcN6P [1]: < 1e-05 s⁻¹
- self-cleavage kobs at 160 uM GlcN6P [5]: < 1e-05 s⁻¹
- self-cleavage kobs at 2500 uM GlcN6P [2]: < 1e-05 s⁻¹

Variant: AUAAAAGCGCCAGAACUACAGAAAUGUAGUUGAUGAGGAGGAGGUUUAUCGAAUUUUCGGCGGAAGCCUCCAAA
- self-cleavage kobs at 40 uM GlcN6P [1]: < 1e-05 s⁻¹
- self-cleavage kobs at 640 uM GlcN6P [4]: < 1e-05 s⁻¹
- self-cleavage kobs at 160 uM GlcN6P [5]: < 1e-05 s⁻¹
- self-cleavage kobs at 10000 uM GlcN6P [3]: < 1e-05 s⁻¹

Variant: AUAAAAGCGCCAGAACUACAGAAAUGUAGUUGAUGAGGAGGAGGAUUAUCGAUUUUUCGGCGGAUGCCUCCAAA
- self-cleavage kobs at 40 uM GlcN6P [1]: < 1e-05 s⁻¹

Variant: AUAAAAGCGCCAGAACUACAGAAAUGUAGUUGAUGAGGAGGAGGUUUAUCGAAUUUUCGGCUGAUGCCUCCAAA
- self-cleavage kobs at 40 uM GlcN6P [1]: < 1e-05 s⁻¹
- self-cleavage kobs at 160 uM GlcN6P [5]: < 1e-05 s⁻¹
- self-cleavage kobs at 2500 uM GlcN6P [2]: < 1e-05 s⁻¹

Variant: AUAAAAGCGCCAGAACUACAGAAAUGUAGUUGAUGAGGAGGAGGUUUAUCGAAUUUUCGGCAGAUGCCUCCAAA
- self-cleavage kobs at 40 uM GlcN6P [1]: < 1e-05 s⁻¹
- self-cleavage kobs at 640 uM GlcN6P [4]: < 1e-05 s⁻¹
- self-cleavage kobs at 160 uM GlcN6P [5]: < 1e-05 s⁻¹
- self-cleavage kobs at 2500 uM GlcN6P [2]: < 1e-05 s⁻¹

Variant: AUAAAAGCGCCAGAACUACAGAAAUGUAGUUGAUGAGGAGGAGGUUUAUCGAAUUUUCGGAGGAUGUCUCCAAA
- self-cleavage kobs at 40 uM GlcN6P [1]: 0.00014 ± 3.8e-05 s⁻¹
- self-cleavage kobs at 640 uM GlcN6P [4]: 0.000388 ± 0.00011 s⁻¹
- self-cleavage kobs at 2500 uM GlcN6P [2]: 5.38e-05 ± 2.6e-05 s⁻¹
- self-cleavage kobs at 10000 uM GlcN6P [3]: 0.000236 ± 6.1e-05 s⁻¹

Variant: AUAAAAGCGCCAGAACUACAGAAAUGUAGUUGAUGAGGAUGAGGUUUAUCGAAUUUCCGGCGGAUGCCUCCAAA
- self-cleavage kobs at 40 uM GlcN6P [1]: < 1e-05 s⁻¹

Variant: AUAAAAGCGCCAGAACUACAGAAAUGUAGUUGAUGAGGAGGAGGAUUAUCGAAUUUUCGGCGGAUGCCUCCAAA
- self-cleavage kobs at 40 uM GlcN6P [1]: < 1e-05 s⁻¹

Variant: AUAAAAGCGCCAGAACUACAGAAAUGUAGUUGAUGAGGAGUAGGUUUAUCGAAAUUUCGGCGGAUGCCUCCAAA
- self-cleavage kobs at 40 uM GlcN6P [1]: < 1e-05 s⁻¹
- self-cleavage kobs at 640 uM GlcN6P [4]: < 1e-05 s⁻¹
- self-cleavage kobs at 2500 uM GlcN6P [2]: < 1e-05 s⁻¹

Variant: AUAAAAGCGCCAGAACUACAGAAAUGUAGUUGAUGAGGAGGAGGUUUAUCGAAUUUUCAGCGGAUGCCUCCAAA
- self-cleavage kobs at 40 uM GlcN6P [1]: < 1e-05 s⁻¹

Variant: AUAAAAGCGCCAGAACUACAGAAAUGUAGUUGAUGAGGAGGAGCUUUAUCGAAUUUUCGGCGAAUGCCUCCAAA
- self-cleavage kobs at 40 uM GlcN6P [1]: < 1e-05 s⁻¹
- self-cleavage kobs at 160 uM GlcN6P [5]: < 1e-05 s⁻¹

Variant: AUAAAAGCGCCAGAACUACAGAAAUGUAGUUGAUGAGGAGGAGGUUUAUCGAAUUUUGGGCGGAGGCCUACAAA
- self-cleavage kobs at 40 uM GlcN6P [1]: 0.000236 ± 8.2e-05 s⁻¹
- self-cleavage kobs at 640 uM GlcN6P [4]: 0.000187 ± 7.4e-05 s⁻¹
- self-cleavage kobs at 10000 uM GlcN6P [3]: 0.000376 ± 0.00015 s⁻¹

Variant: AUAAAAGCGCCAGAACUACAGAAAUGUAGUUGAUGAGGAGGAGGUUUAUCGAAUUUUCGGCGGGUGCCUCCAAA
- self-cleavage kobs at 40 uM GlcN6P [1]: < 1e-05 s⁻¹
- self-cleavage kobs at 640 uM GlcN6P [4]: < 1e-05 s⁻¹
- self-cleavage kobs at 10000 uM GlcN6P [3]: < 1e-05 s⁻¹

Variant: AUAAAAGCGCCAGAACUACAGAAAUGUAGUUGAUGAGGAGGAGAUUUAUCGAAUUUUCGGCGGAUGCCUCCAAA
- self-cleavage kobs at 40 uM GlcN6P [1]: < 1e-05 s⁻¹
- self-cleavage kobs at 640 uM GlcN6P [4]: < 1e-05 s⁻¹
- self-cleavage kobs at 160 uM GlcN6P [5]: < 1e-05 s⁻¹
- self-cleavage kobs at 2500 uM GlcN6P [2]: < 1e-05 s⁻¹
- self-cleavage kobs at 10000 uM GlcN6P [3]: < 1e-05 s⁻¹

Variant: AUAAAAGCGCCAGAACUACAGAAAUGUAGUUGAUGAGGAGGAGCUUUAUCGAAUUUUCGGCGGAUGCCUCCAAA
- self-cleavage kobs at 40 uM GlcN6P [1]: < 1e-05 s⁻¹
- self-cleavage kobs at 2500 uM GlcN6P [2]: < 1e-05 s⁻¹
- self-cleavage kobs at 10000 uM GlcN6P [3]: < 1e-05 s⁻¹

Variant: AUAAAAGCGCCAGAACUACAGAAAUGUAGUUGAUGAGGAGGAGUUUUAUCGAAUUUUCGGCGGAUGCCUCCAAA
- self-cleavage kobs at 40 uM GlcN6P [1]: < 1e-05 s⁻¹
- self-cleavage kobs at 160 uM GlcN6P [5]: < 1e-05 s⁻¹
- self-cleavage kobs at 2500 uM GlcN6P [2]: < 1e-05 s⁻¹
- self-cleavage kobs at 10000 uM GlcN6P [3]: < 1e-05 s⁻¹

Variant: AUAAAAGCGCCAGAACUACAGAAAUGUAGUUGAUGAGGAGUAGGUUUUUCGAAUUUUCGGCGGAUGCCUCCAAA
- self-cleavage kobs at 40 uM GlcN6P [1]: < 1e-05 s⁻¹
- self-cleavage kobs at 640 uM GlcN6P [4]: < 1e-05 s⁻¹
- self-cleavage kobs at 160 uM GlcN6P [5]: < 1e-05 s⁻¹
- self-cleavage kobs at 10000 uM GlcN6P [3]: < 1e-05 s⁻¹

Variant: AUAAAAGCGCCAGAACUACAGAAAUGUAGUUGAUGAGGAGGAGGUUUAUCGAAUUUUCGGCGGAUGCCUCAAAA
- self-cleavage kobs at 40 uM GlcN6P [1]: < 1e-05 s⁻¹
- self-cleavage kobs at 640 uM GlcN6P [4]: < 1e-05 s⁻¹
- self-cleavage kobs at 2500 uM GlcN6P [2]: < 1e-05 s⁻¹

Variant: AUAAAAGCGCCAGAACUACAGAAAUGUAGUUGAUGAGGAGGAGGUGUAUCGAAUUUUCGGCGGAUGCCUCCAAA
- self-cleavage kobs at 40 uM GlcN6P [1]: < 1e-05 s⁻¹
- self-cleavage kobs at 640 uM GlcN6P [4]: < 1e-05 s⁻¹
- self-cleavage kobs at 10000 uM GlcN6P [3]: < 1e-05 s⁻¹

Variant: AUAAAAGCGCCAGAACUACAGAAAUGUAGUUGAUGAGGAGGCGGUUUAUCGAAUUUUCGGCGGAUGCCUCCAAA
- self-cleavage kobs at 40 uM GlcN6P [1]: < 1e-05 s⁻¹
- self-cleavage kobs at 640 uM GlcN6P [4]: < 1e-05 s⁻¹

Variant: AUAAAAGCGCCAGAACUACAGAAAUGUAGUUGAUGAGGAGGAGGUUUAUCGAAUAUUCGUCGGAUGCCUCCAAA
- self-cleavage kobs at 40 uM GlcN6P [1]: < 1e-05 s⁻¹
- self-cleavage kobs at 640 uM GlcN6P [4]: < 1e-05 s⁻¹

Variant: AUAAAAGCGCCAGAACUACAGAAAUGUAGUUGAUGAGGAGAAGGUUUGUCGAAUUUUCGGCCGAUGCCUCCAAA
- self-cleavage kobs at 40 uM GlcN6P [1]: < 1e-05 s⁻¹
- self-cleavage kobs at 10000 uM GlcN6P [3]: < 1e-05 s⁻¹
